Data published in patent US11939397B2, “ENTPD2 antibodies, combination therapies, and methods of using the antibodies and combination therapies” (Novartis AG, priority 2018, dated 2024).

T1: human ENTPD2 (Homo sapiens, UniProt Q9Y5L3)
T1 construct: residues 29-462 of human or cyno ENTPD2 were cloned into expression vector; GP67 signal peptide (N); made in house; host or cells: High Five (Trichoplusia ni) insect cells, baculovirus
T1 sequence (Q9Y5L3 29-462): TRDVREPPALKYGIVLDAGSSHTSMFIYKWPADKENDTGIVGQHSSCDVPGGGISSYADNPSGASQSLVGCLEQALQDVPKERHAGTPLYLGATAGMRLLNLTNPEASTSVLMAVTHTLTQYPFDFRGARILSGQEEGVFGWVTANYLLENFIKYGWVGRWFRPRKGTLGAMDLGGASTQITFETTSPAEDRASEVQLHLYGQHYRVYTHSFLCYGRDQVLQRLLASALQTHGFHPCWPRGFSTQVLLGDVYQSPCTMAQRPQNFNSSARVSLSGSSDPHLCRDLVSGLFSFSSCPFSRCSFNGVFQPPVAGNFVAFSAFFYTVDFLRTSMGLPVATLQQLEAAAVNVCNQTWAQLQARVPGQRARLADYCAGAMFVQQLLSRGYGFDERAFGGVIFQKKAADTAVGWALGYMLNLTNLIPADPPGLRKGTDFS

T2: mouse ENTPD2 (Mus musculus, UniProt O55026)
T2 construct: residues 29-462 of mouse or rat ENTPD2 (the extracellular domain); mouse IgK signal peptide (N); made in house; host or cells: FreeStyle 293-F cells, transient
T2 sequence (O55026 29-462): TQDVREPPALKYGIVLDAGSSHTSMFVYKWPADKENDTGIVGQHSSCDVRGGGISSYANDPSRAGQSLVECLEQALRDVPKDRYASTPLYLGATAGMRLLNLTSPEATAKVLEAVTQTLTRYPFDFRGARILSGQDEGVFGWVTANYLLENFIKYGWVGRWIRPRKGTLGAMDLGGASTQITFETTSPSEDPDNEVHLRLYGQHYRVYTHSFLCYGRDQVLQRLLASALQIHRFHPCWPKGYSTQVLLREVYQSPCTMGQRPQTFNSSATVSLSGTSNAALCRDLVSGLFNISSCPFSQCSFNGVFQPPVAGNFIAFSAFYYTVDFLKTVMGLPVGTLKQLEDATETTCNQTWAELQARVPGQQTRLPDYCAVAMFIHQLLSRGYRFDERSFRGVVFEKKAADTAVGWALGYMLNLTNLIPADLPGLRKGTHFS

T3: recombinant human ENTPD2 (residues 29-462) (Homo sapiens, UniProt Q9Y5L3)
T3 construct: residues 29-462 of human or cyno ENTPD2 were cloned into expression vector; GP67 signal peptide (N); made in house; host or cells: High Five (Trichoplusia ni) insect cells, baculovirus
T3 sequence (Q9Y5L3 29-462): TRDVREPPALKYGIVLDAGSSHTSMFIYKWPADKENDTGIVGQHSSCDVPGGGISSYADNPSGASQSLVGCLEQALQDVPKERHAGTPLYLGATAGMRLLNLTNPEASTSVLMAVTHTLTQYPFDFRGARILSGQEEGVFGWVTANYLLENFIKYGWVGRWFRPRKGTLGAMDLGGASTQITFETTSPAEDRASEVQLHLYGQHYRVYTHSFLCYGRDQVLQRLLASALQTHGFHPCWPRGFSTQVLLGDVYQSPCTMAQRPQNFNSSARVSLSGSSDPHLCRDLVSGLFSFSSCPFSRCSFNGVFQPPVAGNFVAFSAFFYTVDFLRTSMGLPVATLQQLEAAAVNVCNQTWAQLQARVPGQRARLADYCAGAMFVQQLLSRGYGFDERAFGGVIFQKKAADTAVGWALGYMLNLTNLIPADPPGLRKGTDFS


Columns and labels:
human ENTPD2 = target: T1, human ENTPD2; test: Biacore SPR affinity to human ENTPD2 ECD; assay type: binding; details: 25° C.
Protocol: (§1) Biacore™ Screening: Affinity was measured by determining the kinetic rate constants using surface plasmon resonance (SPR) on a Biacore™ T200 or T100 with the T200 sensitivity upgrade instrument (Biacore™, GE Healthcare). Antibodies were captured on CM5 sensor chips (Biacore™, GE Healthcare) prepared with a mouse anti-human IgG Fc antibody (ThermoFisher catalogue #05-4200) amine coupled to the surface. […] ENTPD2 analytes were allowed to associate for 180 s and dissociate for up to 1800 s depending on the off-rate of the antibody at a flow rate of 30 μL/min. The running buffer was PBS pH 7.2 (prepared from a Corning 10× stock, cat #46-013-CM)+0.05% Tween 20. Regeneration was accomplished with 30 s injections of 3 or 4 M MgCl2 to remove all the captured antibody and remaining complex from the surface, after which fresh antibody was captured. The raw data were analyzed using Biacore™ T200 Evaluation Software version 1.0 and fit to a 1:1 binding model, with all parameters set to fit globally except for RI, which was set to fit locally.

mouse ENTPD2 = target: T2, mouse ENTPD2; test: Antibody specificity: binding to mouse ENTPD2; details: SPR, mouse ENTPD2
Protocol: FACS screening: Specific binding of candidate antibodies to endogenously expressed ENTPD2 was assessed by flow cytometry. Cells were rinsed thoroughly with 1×PBS and treated with Accutase (Millipore #SCR005) to lift from growth plates and resuspended at approximately 1×10^5 cells/90 μL in 1×FACS buffer (2% FBS+0.1% NaN3 in PBS). In a 96-well U-bottom plate, 10 μL of 10× antibody solution in FACS buffer was pre-seeded and 90 μL of cell suspension was added. Cell were incubated for 30 minutes at 4° C., washed 1× with cold PBS and resuspended in 100 μL of 1:500 secondary antibody 1×FACS buffer (Allophycocyanin conjugated F(ab′)2 goat anti-human IgG, Fcγ specific; Jackson Immunoresearch, Cat #109-136-098). After additional incubation for 15 min at 4° C., cells were washed twice with PBS and resuspended in 100 μL of 1×FACS buffer with 4 μg/mL propidium iodide (Life Technologies, Cat #P3566). Geometric mean fluorescence intensity was calculated on live single cells using FlowJo software.
ELISA screening on directly coated antigen: Maxisorp™ 384-well plates (Thermo Nunc) were coated with 2 μg/ml of recombinant ENTPD2 diluted in PBS. After blocking with 2% BSA (bovine serum albumin) in PBS for 1 hr at room temperature, washing plates 3× with TBST (0.05% Tween 20 in TBS, Sigma Cat #T9039), primary antibodies in TBST and 2% BSA were added in a serial dilution and incubated for 1 hr at room temperature. Plates were washed again and bound antibodies were detected by incubation with anti-hFc gamma conjugated to horseradish peroxidase (HRP; Jackson ImmunoResearch, Cat #115-035-098, diluted 1:5000 in 1×TBST+2% BSA) for 1 hr at room temperature followed by washing with TBST and afterwards addition of SureBlue Peroxidase substrate (KPL, #52-00-03) substrate. After 15 min, absorbance at 650 nm was recorded and analyzed in GraphPad Prism6.
as §1
Antibody specificity for mAb1-mAb10 was confirmed. […] Antibodies mAb8, mAb9, and mAb10 show weak affinity to mouse ENTPD2. None of the selected antibodies bind to rat ENTPD2.

[1] = tested on: human ENTPD2 engineered B16LM3 clone B5 tumor; test: Human ENTPD2 engineered B16LM3 clone B5 xenograft model, combination with anti-PD-1 Ab; assay type: in vivo, C57BL/6 mice; details: for anti-tumor efficacy as single agents: i.v. on day 1, single agent
From the text: This model was derived from the B16LM3 melanoma model, where endogenous mouse ENTPD2 expression was knocked out via a transient electroporation of CAS9 protein with CRISPR guide RNA sequences against mouse ENTPD2, and human ENTPD2 was overexpressed using a retroviral transduction approach.
Once tumors reached approximately 35-50 mm^3, mice were randomized according to tumor volume into treatment groups (n=8 per group). […] All doses were adjusted to individual mouse body weights.

[2] = tested on: cynomologus (cyno) ENTPD2; test: Biacore SPR affinity to cyno ENTPD2 ECD; assay type: binding, cynomolgus monkey; details: 25° C.
Protocol: as §1

[3] = target: T3, recombinant human ENTPD2 (residues 29-462); test: Biochemical human ENTPD2 functional assay (Transcreener ADP2 TR-FRET); details: FIG. 15
[4] = 0.1 mg/kg i.v. day 1, in combination with anti-PD-1 Ab (fixed dose of 10 mg/kg), Day 7
[5] = 1 mg/kg i.v. day 1, in combination with anti-PD-1 Ab (fixed dose of 10 mg/kg), Day 7
[6] = 10 mg/kg i.v. day 1, in combination with anti-PD-1 Ab (fixed dose of 10 mg/kg), Day 7

| Molecule | Human ENTPD2 ka (human ENTPD2) | Human ENTPD2 kd (human ENTPD2) | Mouse ENTPD2 BIACore KD (mouse ENTPD2) | ΔT/ΔC value [1, 4] | ΔT/ΔC value [1, 5] | ΔT/ΔC value [1, 6] | Tumor Response ΔT/ΔC ([1]; Day 7, mAb 10 mg/kg dosed D 1, single agent, no anti-PD-1 Ab) | anti-tumor efficacy as single agents [1] | Host Response Δ body weight ([1]; mAb 10 mg/kg dosed D 1, single agent, no anti-PD-1 Ab) | Cyno ENTPD2 ka [2] | Cyno ENTPD2 kd [2] | inhibition of the catalytic activity of the recombinant human ENTPD2 [3] |
| --- | --- | --- | --- | --- | --- | --- | --- | --- | --- | --- | --- | --- |
| mAb6: anti-human ENTPD2 antibody generated by humanization and optimization of mAb16 (antibody) heavy: QVQLQESGPGLVKPSQTLSLTCTVSGYSITSGYYWNWIRQHPGKGLEWMGYISYDADNNYNPSLKNRITISRDTSKNQFSLKLSSVTAADTAVYYCAGGYYRYGLGSYSGSYYYVMDYWGQGTTVTVSSASTKGPSVFPLAPSSKSTSGGTAALGCLVKDYFPEPVTVSWNSGALTSGVHTFPAVLQSSGLYSLSSVVTVPSSSLGTQTYICNVNHKPSNTKVDKRV[human IgG1 Fc skipped] light: DTQMTQSPSSLSVSVGDRATITCKASQSVDYEGHSYMNWYQQKPGKAPKLLIYAASNLESGVPSRFSGSGSGTDFTLTISSVQPEDFATYYCQQSNEDPPTFGGGTKLEIKRTVAAPSVFIFPPSDEQLKSGTASVVCLLNNFYPREAKVQWKVDNALQSGNSQESVTEQDSKDSTYSLSSTLTLSKADYEKHKVYACEVTHQGLSSPVTKSFNRGEC | 350000 M⁻¹ s⁻¹ | 0.00026 s⁻¹ | No binding | 41.0% | 27.3% | 29.2% | 60.0% | No significant anti-tumor efficacy | −0.1% | 290000 M⁻¹ s⁻¹ | 0.01 s⁻¹ | – |
| mAb1: anti-human ENTPD2 antibody generated by humanization of mAb17 (antibody) heavy: EVQLVQSGAEVKKPGESLKISCKASGYTFTDYNMDWVRQMPGKGLEWMGDINPKYDISTYNQQFKGQVTISADKSIRTAYLQWSSLKASDTAMYYCARRGFFLYYGINYYYFDVWGQGTLVTVSSASTKGPSVFPLAPSSKSTSGGTAALGCLVKDYFPEPVTVSWNSGALTSGVHTFPAVLQSSGLYSLSSVVTVPSSSLGTQTYICNVNHKPSNTKVDKRV[human IgG1 Fc skipped] light: DIQLTQSPSSLSASVGDRVTITCSASSSVSYIHWFQQKPGKAPKLLIYSTSNLASGVPSRFSGSGSGTFFTLTISSLQPEDFATYFCHQWSSYPWTFGQGTKVEIKRTVAAPSVFIFPPSDEQLKSGTASVVCLLNNFYPREAKVQWKVDNALQSGNSQESVTEQDSKDSTYSLSSTLTLSKADYEKHKVYACEVTHQGLSSPVTKSFNRGEC | 110000 M⁻¹ s⁻¹ | 0.00019 s⁻¹ | No binding | 33.4% | 35.7% | 18.4% | – | No significant anti-tumor efficacy | – | 360000 M⁻¹ s⁻¹ | 0.0012 s⁻¹ | potently inhibit |
| mAb19: anti-human ENTPD2 antibody disclosed in Table 1 (antibody) heavy: EVQLQQFGAELVKPGTSVKISCKASGYTFTDYNMDWVKQSHGKSLEWIGDINPNYDITTYNQRFKGKATLTVDKSSSTAYMELRSLTSEDTAVYYCARRGFFPYYGNSYYYFDVWGAGTTVTVSSASTKGPSVFPLAPSSKSTSGGTAALGCLVKDYFPEPVTVSWNSGALTSGVHTFPAVLQSSGLYSLSSVVTVPSSSLGTQTYICNVNHKPSNTKVDKRV[human IgG1 Fc skipped] light: QIVLTQSPTIMSASLGEEITLTCSASSSVSYMHWYQQKSGTSPKLLIYSTSNLASGVPSRFSGSGSGTFYSLTISSVEAEDAADYYCHQWSNYPWTFGGGTKLEIKRTVAAPSVFIFPPSDEQLKSGTASVVCLLNNFYPREAKVQWKVDNALQSGNSQESVTEQDSKDSTYSLSSTLTLSKADYEKHKVYACEVTHQGLSSPVTKSFNRGEC | – | – | – | – | – | – | – | – | – | – | – | potently inhibit |
| mAb21: anti-human ENTPD2 antibody disclosed in Table 1 (antibody) heavy: EVQLQQSGPELVKPGASVKISCKTSGYTFTEYTMHWVKQSHGKSLEWIGGINPNNGITTYNQKFKGKATLTVDKSSSTAYMDLRSLTSEGSAVYYCARRGFPIYYYGTSLYYFDYWGQGTTLTVSSASTKGPSVFPLAPSSKSTSGGTAALGCLVKDYFPEPVTVSWNSGALTSGVHTFPAVLQSSGLYSLSSVVTVPSSSLGTQTYICNVNHKPSNTKVDKRV[human IgG1 Fc skipped] light: QIVLTQSPAIMSASLGEEITLTCSASSSVSYMHWYQQRSGTSPKLLIYTTSNLASGVPSRFSGSGSGTFYSLTISSVEAEDAADYYCHQWSSYPWTFGGGTKLEIKRTVAAPSVFIFPPSDEQLKSGTASVVCLLNNFYPREAKVQWKVDNALQSGNSQESVTEQDSKDSTYSLSSTLTLSKADYEKHKVYACEVTHQGLSSPVTKSFNRGEC | – | – | – | – | – | – | – | – | – | – | – | potently inhibit |
